One block for each binder: values may come before it.
Experiments:
Assay in all cases: SPR (Biacore T200), 1:1 binding model
[1] = molecular target: T1, huIL10R alpha protein #9100 (human, UniProt Q13651 22-235)
T1 construct: also called huIL10R 9100; version 9100
T1 sequence (looked up): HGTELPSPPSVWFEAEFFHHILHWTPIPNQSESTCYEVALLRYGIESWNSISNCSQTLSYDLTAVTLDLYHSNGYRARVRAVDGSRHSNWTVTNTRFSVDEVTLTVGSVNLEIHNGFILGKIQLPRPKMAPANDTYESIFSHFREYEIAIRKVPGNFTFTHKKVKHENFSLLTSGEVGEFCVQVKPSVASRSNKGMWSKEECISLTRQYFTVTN

[2] = molecular target: T2, huIL10R alpha protein #274 (human, UniProt Q13651 22-235)
T2 sequence (looked up): T1 sequence (looked up)

cyTREM1 ECD = molecular target: T3, cyTREM1 ECD (cynomolgus monkey, UniProt A0A2K5VHG8 21-204)
T3 construct: extracellular domain; also called cynoTREM1; cyno TREM1
T3 sequence: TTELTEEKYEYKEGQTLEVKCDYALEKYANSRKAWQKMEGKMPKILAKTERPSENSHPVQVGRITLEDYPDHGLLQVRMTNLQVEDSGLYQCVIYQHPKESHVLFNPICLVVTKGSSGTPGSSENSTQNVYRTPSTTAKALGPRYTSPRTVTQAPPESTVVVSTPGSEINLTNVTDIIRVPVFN

Kd [1]: 167 nM
Kd [2]: 36.8 nM
Kd (cyTREM1 ECD): 1.14 nM
B1: anti-huTREM1 61B12 G4S huIL10M1 Q38E IgG-protein (other)
heavy: QVQLVQSGAEVTKPGASVKVSCKASGYTFTRYDINWVRQATGQGLEWMGWMNPNSGNSGSVQKFRGRVTMTRDTSITTVYMELSSLRSDDTAVYYCARGGISSSWHWAFDIWGQGTMVTVSSASTKGPSVFPLAPSSKSTSGGTAALGCLVKDYFPEPVTVSWNSGALTSGVHTFPAVLQSSGLYSLSSVVTVPSSSLGTQTYICNVNHKPSNTKVDKKV[human IgG1 Fc with R292C N297G V302C (EU numbers) not given here]GGGGSSPGQGTQSENSCTHFPGNLPNMLRDLRDAFSRVKTFFEMKDQLDNLLLKESLLEDFKGYLGCQALSEMIQFYLEEVMPQAENQDPDIKAHVNSLGENLKTLRLRLRRCHRFLPCENGGGSGGKSKAVEQVKNAFNKLQEKGIYKAMSEFDIFINYIEAYMTMKIRN
light: DIQMTQSPSSLSASVGDRVTITCQASQDINNHLNWYQQKPGKAPKLLIYGAYTLETGVPSRFSGSGSGTDFTFTISSLQPEDIATYYCQQYDKLPLTFGGGTKVEIKRTVAAPSVFIFPPSDEQLKSGTASVVCLLNNFYPREAKVQWKVDNALQSGNSQESVTEQDSKDSTYSLSSTLTLSKADYEKHKVYACEVTHQGLSSPVTKSFNRGEC
notes: Bivalent antibody-cytokine fusion: IgG1z SEFL2 heavy chain (desK), G4S linker, IL-10M1 mutein at the C-terminus

Kd [1]: 225 nM
Kd [2]: 56.3 nM
Kd (cyTREM1 ECD): 1.25 nM
B2: anti-huTREM1 61B12 G4S huIL10M1 L46K IgG-protein (other)
heavy: QVQLVQSGAEVTKPGASVKVSCKASGYTFTRYDINWVRQATGQGLEWMGWMNPNSGNSGSVQKFRGRVTMTRDTSITTVYMELSSLRSDDTAVYYCARGGISSSWHWAFDIWGQGTMVTVSSASTKGPSVFPLAPSSKSTSGGTAALGCLVKDYFPEPVTVSWNSGALTSGVHTFPAVLQSSGLYSLSSVVTVPSSSLGTQTYICNVNHKPSNTKVDKKV[human IgG1 Fc with R292C N297G V302C (EU numbers) not given here]GGGGSSPGQGTQSENSCTHFPGNLPNMLRDLRDAFSRVKTFFQMKDQLDNKLLKESLLEDFKGYLGCQALSEMIQFYLEEVMPQAENQDPDIKAHVNSLGENLKTLRLRLRRCHRFLPCENGGGSGGKSKAVEQVKNAFNKLQEKGIYKAMSEFDIFINYIEAYMTMKIRN
light: B1 light
notes: as for B1

From US20260274913A1 (Amgen, published 2026)
